Experimental data: the supplement of paper PMC10126150
Values marked as one replicate rest on one cluster of the flow cell; about a third of the high ones do not repeat.

system: ATP; test: switch fluorescence ratio, 500 uM ATP over buffer (Cy3 cluster intensity, sum of 5 cycles each) (fold (ratio)); higher = stronger signal-on switching upon ATP binding; sequences stand for … in TCGTCGGCAGCGTCAGATGTGTATAAGAGACAGTTTTTTTTTTTTTTTTTTTTTTTTT…TC; settings: aptamer strand: ATP DNA aptamer (quencher-CACCTGGGGGAGTATTGCGGAGGAAGG + anchor), 100 nM annealed; ATP concentration: 500 uM; one replicate
In short: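 Values give the fluorescence ratio for each switch-domain sequence, averaged from per-cluster ratios of summed target-cycle to summed buffer-cycle Cy3 intensity. The Cy3-labelled switching-strand clusters sat on a modified Illumina MiSeq flow-cell, were annealed to 100 nM quencher-labelled ATP aptamer, and were imaged in selection buffer, then after 15 min with 500 uM ATP at 22 °C. Five cycles ran with NaOH stripping and re-annealing between them, and clusters outside 100-1000 RFU were excluded.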
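Also: ATP exposure 15 min at 22 °C before imaging.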

| Sequence | switch fluorescence ratio |
| --- | --- |
| ACATCGGGGA | 1.07 |
| ACATCGTCAC | 1.05 |
| ACATCTATTG | 0.984 |
| ACATGACGT | 1.12 |
| ACATGAGCAT | 0.983 |
| ACATGCGAAA | 1.02 |
| ACATGCTCTG | 1.05 |
| ACATGGCTTC | 0.988 |
| ACATGGTCGT | 1.02 |
| ACATGGTGAA | 0.948 |
| ACATGTTCCG | 0.996 |
| ACATTAAATG | 0.974 |
| ACATTAAGTG | 1.02 |
| ACATTATGTC | 1.12 |
| ACATTCAACT | 1.02 |
| ACATTGTTGG | 1.06 |
| ACATTTAGGT | 0.987 |
| ACATTTCAGT | 1.03 |
| ACATTTGTTG | 0.985 |
| ACATTTTAGT | 0.996 |
| ACATTTTCAC | 1.02 |
| ACATTTTTAA | 1.03 |
| ACCAAGATTC | 1.11 |
| ACCAAGTT | 0.957 |
| ACCAATAGCT | 1.04 |
| ACCAATGTGT | 0.995 |

| Sequence | switch fluorescence ratio |
| --- | --- |
| ACCACAGTCC | 1.1 |
| ACCACATAAT | 1.08 |
| ACCACCCGAG | 1.17 |
| ACCACGAGTT | 1.04 |
| ACCACGGATT | 1.11 |
| ACCACTTGCT | 0.987 |
| ACCAGAATT | 0.988 |
| ACCAGACATC | 1.05 |
| ACCAGACGAA | 1.2 |
| ACCAGAGTCT | 1.02 |
| ACCAGCAGTA | 1.03 |
| ACCAGCTGTA | 0.996 |
| ACCAGGCCGT | 0.969 |
| ACCAGGGACC | 1.01 |
| ACCAGGGGAA | 1.02 |
| ACCAGTGTGC | 1.69 |
| ACCATGAGGT | 0.947 |
| ACCATGCGT | 0.994 |
| ACCATGGGGG | 1.03 |
| ACCATTACCG | 1.2 |
| ACCATTGGTT | 0.977 |
| ACCCAATCG | 1.09 |
| ACCCACTGTA | 1.46 |
| ACCCATTGTT | 1.03 |
| ACCCCAAAGT | 1.02 |
| ACCCCCATTC | 1.35 |

| Sequence | switch fluorescence ratio |
| --- | --- |
| ACCCCTACTA | 1.23 |
| ACCCCTCTCA | 1.06 |
| ACCCGCGGAG | 1.02 |
| ACCCGGTTTG | 1.01 |
| ACCCGTACTG | 1.18 |
| ACCCGTGAAG | 1.01 |
| ACCCGTGCTT | 1.04 |
| ACCCTAGGGA | 1.02 |
| ACCCTGCTGT | 1.04 |
| ACCCTGGCGG | 1.04 |
| ACCCTGTATA | 0.992 |
| ACCCTGTCCT | 1.09 |
| ACCCTTCTTT | 1.53 |
| ACCCTTTGA | 1.02 |
| ACCGAAACCC | 1.24 |
| ACCGAAATTT | 1 |
| ACCGAATCCA | 1.1 |
| ACCGAATTTT | 1.12 |
| ACCGAGACCC | 1.08 |
| ACCGAGATAT | 1.13 |
| ACCGAGCGCA | 3.1 |
| ACCGATCTTT | 1.01 |
| ACCGCCTCTA | 1.2 |
| ACCGCCTTTG | 1.03 |
| ACCGCGA | 2.31 |
| ACCGCGGGGC | 1.4 |

| Sequence | switch fluorescence ratio |
| --- | --- |
| ACCGCGGTG | 0.988 |
| ACCGCGTGCT | 1.06 |
| ACCGGAACAA | 2.02 |
| ACCGGAATTT | 1.18 |
| ACCGGAGTTA | 1.16 |
| ACCGGCGATG | 1.02 |
| ACCGGCGGT | 1.01 |
| ACCGGCTGGG | 0.991 |
| ACCGGCTGTG | 1.02 |
| ACCGGGCGCT | 1.02 |
| ACCGGGGCCT | 1 |
| ACCGGTCAGG | 0.992 |
| ACCGGTGGCT | 1.01 |
| ACCGGTTCTC | 1.05 |
| ACCGTACTGT | 1.58 |
| ACCGTAGAAG | 1.1 |
| ACCGTCCGAG | 3.11 |
| ACCGTCCTCT | 1.48 |
| ACCGTGAGAG | 1.05 |
| ACCGTGAGGG | 0.976 |
| ACCGTTCTCG | 1.06 |
| ACCTAATAGT | 1.05 |
| ACCTACAGGG | 1.1 |
| ACCTAGGGGG | 1.04 |
| ACCTCATTA | 1.05 |
| ACCTCCCGTA | 1.16 |

| Sequence | switch fluorescence ratio |
| --- | --- |
| ACCTCGCCCG | 1.1 |
| ACCTCGCCGA | 1.11 |
| ACCTCGTACC | 1.08 |
| ACCTCTTTGG | 0.994 |
| ACCTGCTAAA | 1.02 |
| ACCTGGAGCC | 1.47 |
| ACCTGGCATT | 1 |
| ACCTGGCGA | 1.05 |
| ACCTTAAGCT | 1.06 |
| ACCTTATCCC | 1.22 |
| ACCTTGTCAT | 1 |
| ACCTTGTGAC | 1.24 |
| ACCTTGTTCT | 1.01 |
| ACCTTTAAG | 1.01 |
| ACGAAAACTA | 0.982 |
| ACGAAAGGCT | 1.11 |
| ACGAAGAAAT | 1.43 |
| ACGAAGGAGT | 0.991 |
| ACGAATCATA | 1.05 |
| ACGAATTCTC | 1.04 |
| ACGAATTTGG | 0.97 |
| ACGACCGTGG | 0.979 |
| ACGACCTTGG | 1.01 |
| ACGACGTGAG | 0.957 |
| ACGAGCACGG | 1.76 |
| ACGAGCTGAT | 1.09 |

| Sequence | switch fluorescence ratio |
| --- | --- |
| ACGAGGGGGT | 1.08 |
| ACGAGGT | 0.933 |
| ACGATCGTTG | 0.98 |
| ACGATGTATA | 0.979 |
| ACGATTGTTT | 1.05 |
| ACGATTTACT | 1.08 |
| ACGATTTTCA | 1.01 |
| ACGCAACGCT | 1.45 |
| ACGCAGGGA | 1.02 |
| ACGCATTCTG | 1.14 |
| ACGCCCAATC | 4.47 |
| ACGCCGAAGA | 1.06 |
| ACGCCGAATT | 1.08 |
| ACGCCGCCTG | 1.15 |
| ACGCGAACAT | 1.02 |
| ACGCGAGCAG | 1.03 |
| ACGCGAGCT | 0.98 |
| ACGCGATTGA | 1.03 |
| ACGCGCCAGC | 0.98 |
| ACGCGGGGCA | 1.03 |
| ACGCGTTGTA | 1.04 |
| ACGCTACAGG | 1.43 |
| ACGCTCACTT | 1.44 |
| ACGCTCTGCC | 1.02 |
| ACGCTGGGAT | 0.989 |
| ACGCTGGGGC | 1.19 |

| Sequence | switch fluorescence ratio |
| --- | --- |
| ACGCTGGTAC | 2.32 |
| ACGGAAGAAC | 1.27 |
| ACGGACCTAT | 1.28 |
| ACGGAGTTGT | 1.04 |
| ACGGATCAAC | 1.14 |
| ACGGATCTGA | 1.03 |
| ACGGATGAAG | 0.976 |
| ACGGATGTAA | 0.98 |
| ACGGATTATT | 0.988 |
| ACGGCCCCGC | 1.16 |
| ACGGCCCTGC | 1.04 |
| ACGGCCGCTA | 1.09 |
| ACGGCGCCTC | 1.02 |
| ACGGCGCGGA | 1.04 |
| ACGGCGGTCC | 1.04 |
| ACGGCGGTTT | 1.01 |
| ACGGCTTTAA | 0.995 |
| ACGGGAATAT | 1.06 |
| ACGGGAGCAC | 1.2 |
| ACGGGAGTTT | 0.978 |
| ACGGGATGCA | 1.08 |
| ACGGGCCGAC | 1.15 |
| ACGGGCGCAC | 1.08 |
| ACGGGGAAAT | 0.964 |
| ACGGGGAATT | 1.11 |
| ACGGGGAGTG | 0.936 |

| Sequence | switch fluorescence ratio |
| --- | --- |
| ACGGGGTGGC | 1 |
| ACGGGGTTCG | 0.993 |
| ACGGGTGTCA | 0.981 |
| ACGGGTGTCT | 1.05 |
| ACGGGTGTGC | 0.997 |
| ACGGTAATTG | 1.13 |
| ACGGTACATT | 1.34 |
| ACGGTAGAAT | 1.05 |
| ACGGTATCGC | 1.05 |
| ACGGTCCGTC | 1 |
| ACGGTCCTC | 1.04 |
| ACGGTGAAAC | 0.969 |
| ACGGTTGGGG | 1.04 |
| ACGGTTTAAG | 1.03 |
| ACGTAAAGTG | 1.04 |
| ACGTAAATGC | 1.64 |
| ACGTAAGACG | 1.12 |
| ACGTAAGCAC | 1.11 |
| ACGTAGGATC | 1.04 |
